Measurements taken from PubChem BioAssay (NCI).
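48-hour exposure; five concentrations; linearly interpolated endpoints. Here, GI50 denotes the concentration required for 50% inhibition of growth. The concentration for full growth arrest is given as TGI.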

Tested on: NCI-H322M lung
Assay: DTP human tumour cell line panel, 48 h

| Compound | GI50 | TGI |
| --- | --- | --- |
| COc1cc(OC)c2c3nc4cc(C)c(C)cc4nc3n(CCN(C)C)c2c1 | 12.7 µM | 26.1 µM |
| O=S(=O)(Nc1cccc(-n2cnc3cc(-c4ccc(O)cc4)ccc32)c1)C1CC1 | 6.36 µM | 19.5 µM |
| CCN1CCN(Cc2ccc(C(=O)Nc3cccc(C#Cc4cccc5[nH]nc(N)c45)c3)cc2C(F)(F)F)CC1 | 1.79 µM | 5.58 µM |
| C=C1CCC2C3(C)COC(c4ccccc4F)OC3CCC2(C)C1CC(O)C1=CCOC1=O (stereo not given) | 49.5 µM | > 100 µM |
| CCOc1ccccc1[C@H]1C(C(=O)c2ccc(Cl)cc2)C2(N[C@@H]1c1ccccc1)C(=O)Nc1ccc(Br)cc12 (stereo not given in full) | 5.96 µM | > 34.5 µM |
